{
  "source": "ChEMBL document CHEMBL4888484",
  "about": "“Replenishing the malaria drug discovery pipeline: Screening and hit evaluation of the MMV Hit Generation Library 1 (HGL1) against asexual blood stage Plasmodium falciparum ,using a nano luciferase reporter read-out” (2022)",
  "note": "Out of some 150,000 compounds screened, about 540 (0.36%) showed an effect of 50% or more. The list shows a part of the results.",
  "data": [
    {"system": "Plasmodium falciparum", "assay": "Primary screen in NF54 nanoGlo assay, in single point, at 2uM, 72h; a lower Z score goes with more inhibition", "format": "functional, Erythrocyte", "conditions": "timepoint 72 hour", "units": {"% Inhibition": "%"}, "values": [
      {"smiles": "COc1cc2c(cc1OC)CN(c1cc(C(=O)NCc3ccccc3F)c3ccccc3n1)CC2", "% Inhibition": 2, "Z score": -0.37},
      {"smiles": "Cc1nn(C)c(C)c1C(=O)N1CCOc2ccc(N(C)C)cc2C1", "% Inhibition": -1, "Z score": 0.27},
      {"smiles": "CCc1noc(C)c1-c1noc(CC2(COC)CC2)n1", "% Inhibition": -12, "Z score": 1.69},
      {"smiles": "Cc1sc(-c2nnc(C(=O)N3CCCC3)o2)cc1S(=O)(=O)NC1CCCCCC1", "% Inhibition": -8, "Z score": 1.13},
      {"smiles": "COCCn1c(-c2ccccc2Cl)nnc1N1C[C@H](C)OC(C)(C)C1", "% Inhibition": -4, "Z score": 0.55},
      {"smiles": "CN(Cc1cccn1C)C(=O)[C@H]1CCc2nncn2C1", "% Inhibition": -9, "Z score": 1.38},
      {"smiles": "Cc1nc(CN2CCCC[C@H]2C(=O)Nc2cccc(-c3nnc(C)s3)c2)no1", "% Inhibition": -18, "Z score": 2.77},
      {"smiles": "COc1ccc(N2C(=O)C[C@H](N(C)Cc3nc4ccccc4s3)C2=O)c(OC)c1", "% Inhibition": -5, "Z score": 1.08},
      {"smiles": "O=C(Cc1c[nH]c2ccccc12)N1CC[C@H](Oc2cnccn2)C1", "% Inhibition": -9, "Z score": 0.97},
      {"smiles": "Cc1ccc(OCCCN2CCN(C)CC2)c(Cc2ccccc2)c1", "% Inhibition": -10, "Z score": 1.33},
      {"smiles": "O[C@@H]1CCN(Cc2cnc3c(-c4ccccc4)cnn3c2)C1", "% Inhibition": 1, "Z score": -0.13},
      {"smiles": "Cc1cccc(OCCN2CC[C@@]3(CCCOC3)C2)c1", "% Inhibition": 0, "Z score": 0.02},
      {"smiles": "Cc1ccc(C(=O)c2cnc3ccc(F)cc3c2N2CCCC2)cc1C", "% Inhibition": -8, "Z score": 0.98},
      {"smiles": "c1ccc(-c2ncn([C@H]3COC[C@@H]3N3CCCCC3)c2-c2ccncc2)cc1", "% Inhibition": -14, "Z score": 1.91},
      {"smiles": "Cn1cccc1CN(Cc1cccs1)C(=O)COc1cccc2c1OC(C)(C)C2", "% Inhibition": -1, "Z score": 0.11},
      {"smiles": "CC(C)c1cc(C(C)C)n([C@@H]2c3ccccc3C3(CCNCC3)[C@H]2O)n1", "% Inhibition": -16, "Z score": 2.14},
      {"smiles": "CN1CC(C(=O)NC2CCOC2c2ccc(Cl)c(F)c2)CC1=O", "note": "(stereo not drawn)", "% Inhibition": 5, "Z score": -0.62},
      {"smiles": "CC[C@H](NC(=O)N(C)C1CCOCC1)c1ccc2c(c1)CC(C)(C)O2", "% Inhibition": -5, "Z score": 0.75},
      {"smiles": "CN1CCN(Cc2ccc(-c3cc4ccccc4n3C)nc2)CC1", "% Inhibition": -12, "Z score": 1.31},
      {"smiles": "Cc1noc(C)c1S(=O)(=O)N1CCCCCC1", "% Inhibition": -11, "Z score": 0.89},
      {"smiles": "COCC(=O)N[C@H]1[C@H](c2cccs2)N(C(=O)N2CCOCC2)CC[C@@]1(C)O", "% Inhibition": -15, "Z score": 2.33},
      {"smiles": "C[C@@H](C(N)=O)N(c1ccc2c(c1)OCCO2)S(C)(=O)=O", "% Inhibition": 0, "Z score": 0.08},
      {"smiles": "O=C(c1cc2c([nH]c1=O)CCCCC2)N1CC2CCC1C2", "note": "(stereo not drawn)", "% Inhibition": 29, "Z score": -3.25},
      {"smiles": "CC(C)Cc1noc(Cn2c(=O)n(C)c3ccncc32)n1", "% Inhibition": -7, "Z score": 1.35},
      {"smiles": "Cc1nc2cc(C(=O)N3CCN(CCN4CCOCC4)CC3)ccc2s1", "% Inhibition": -2, "Z score": 0.49},
      {"smiles": "OCCN(CCO)Cc1ncc(Cl)cc1Br", "% Inhibition": -3, "Z score": 0.51},
      {"smiles": "COC[C@](C)(NC(=O)c1cncc(-n2ccnn2)c1)c1ccccc1", "% Inhibition": -8, "Z score": 0.99},
      {"smiles": "CN(C)[C@@H](CNC(=O)c1cccs1)C1CC1", "% Inhibition": -15, "Z score": 1.65},
      {"smiles": "Cc1cc(C)cc(NC(=O)CC2=Nc3ccccc3S(=O)(=O)N2)c1", "% Inhibition": -14, "Z score": 1.65},
      {"smiles": "Cc1ccccc1-n1ncc2c1CC(C)(C)C[C@@H]2NC1CCN(C(C)C)CC1", "% Inhibition": 13, "Z score": -2.06},
      {"smiles": "CC(C)CCOc1ccc(C(=O)Nc2cc(S(=O)(=O)N3CCOCC3)ccc2N2CCOCC2)cc1", "% Inhibition": 6, "Z score": -1.04},
      {"smiles": "CN(Cc1cc2n(n1)CCCNC2)Cc1nc(-c2ccccc2)cs1", "% Inhibition": -12, "Z score": 1.6},
      {"smiles": "Cc1cc(C)n2ncc(CN3CCN(c4ccnc5nncn45)CC3)c2n1", "% Inhibition": -4, "Z score": 0.55},
      {"smiles": "O=C(O)c1cn(C[C@H]2CCCN(C/C=C/c3ccco3)C2)nn1", "% Inhibition": -19, "Z score": 4.07},
      {"smiles": "C[C@@H](Cc1cccs1)NS(=O)(=O)c1cccc2c1N=S=N2", "% Inhibition": -4, "Z score": 0.72},
      {"smiles": "CC1(C)C[C@@H]1CNC(=O)N1CCN(CCc2ccccc2)C(=O)C1", "% Inhibition": 6, "Z score": -0.97},
      {"smiles": "Cc1ccc(C(=O)Nc2nccnc2C(=O)N2CCN(c3ccc(F)cc3)CC2)cc1", "% Inhibition": -6, "Z score": 0.87},
      {"smiles": "CC(NC(=O)N(C)CC1CCCO1)c1ccc(N2CCOCC2)cc1", "note": "(stereo not drawn)", "% Inhibition": -3, "Z score": 0.42},
      {"smiles": "Cc1c(C2=CCN(S(=O)(=O)c3ccc(C(C)C)cc3)CC2)c2ccccc2n1Cc1ccc(F)cc1", "% Inhibition": 13, "Z score": -1.73},
      {"smiles": "Clc1cccc(N2CCN(Cn3c(COc4ccccc4)nc4ccccc43)CC2)c1", "% Inhibition": -7, "Z score": 1.07},
      {"smiles": "O=S(=O)(c1cccnc1)N1CC[C@H](Oc2ncc(Cl)cn2)C1", "% Inhibition": 4, "Z score": -0.65},
      {"smiles": "Cc1ccccc1CNC(=O)CCCc1nnc(C(=O)Nc2cccc(F)c2)s1", "% Inhibition": -4, "Z score": 0.84},
      {"smiles": "COc1cccc(NC(=O)Cn2cnc3c(-c4ccccc4)nsc3c2=O)c1", "% Inhibition": 3, "Z score": -0.53},
      {"smiles": "C[C@H](OC(=O)c1cnns1)c1ccccc1Cl", "% Inhibition": 4, "Z score": -0.69},
      {"smiles": "COc1cc(C)cc(NC(=O)N2CCC[C@@H]2c2csc(C)n2)c1C", "% Inhibition": -5, "Z score": 0.58},
      {"smiles": "CN(C)C1(CNC(=O)CCc2ccc(F)cc2)CCCC1", "% Inhibition": -1, "Z score": 0.2},
      {"smiles": "O=C1CCCN1CCCC(=O)N1CCC2(CCCCCC2)C1", "% Inhibition": -12, "Z score": 1.73},
      {"smiles": "CCOc1ccc(N(C)Cc2nc3ncc(Br)cc3[nH]2)cc1", "% Inhibition": -8, "Z score": 0.99},
      {"smiles": "CC(C)C[C@H]1COCCN1C(=O)NCc1cccc(C(F)(F)F)n1", "% Inhibition": 5, "Z score": -0.64},
      {"smiles": "COc1cc([C@@H]2CC(=O)Nc3ccc4nsnc4c32)ccc1O", "% Inhibition": -6, "Z score": 0.9},
      {"smiles": "CCC(CC)C(=O)Nc1ccc(Oc2c(C)c(C(=O)O)nn2C)c(S(=O)(=O)N[C@@H](C)CC)c1", "% Inhibition": 3, "Z score": -0.4},
      {"smiles": "CCC#CCN1CCC(CNC(=O)c2cccc(C)n2)CC1", "% Inhibition": 2, "Z score": -0.33},
      {"smiles": "CC[C@@](C)(CC(=O)O)NC(=O)c1cc(C)ccc1F", "% Inhibition": -9, "Z score": 1.16},
      {"smiles": "CNC(=O)c1ccc(Cn2ncc(N(C)C)cc2=O)cc1", "% Inhibition": -4, "Z score": 0.69},
      {"smiles": "Cc1cccc(CN2CC=C(c3noc(CCC(=O)N4CCC(N5CCCCC5)CC4)n3)CC2)c1", "% Inhibition": -2, "Z score": 0.25},
      {"smiles": "Cc1ccc(=O)n(CCNC(=O)c2cncc(Br)c2)n1", "% Inhibition": -17, "Z score": 3.06},
      {"smiles": "O=C(NCc1ncc[nH]1)c1cc(COc2c(F)cccc2F)on1", "% Inhibition": -9, "Z score": 1.9},
      {"smiles": "COc1ccc(CCC(=O)N2CCCN(c3ccc4nnc(C)n4n3)CC2)cc1", "% Inhibition": -6, "Z score": 0.64},
      {"smiles": "CCCCN1CCN(C(=O)c2oc3c(Cl)cc(C)cc3c2C)CC1=O", "% Inhibition": -16, "Z score": 2.98},
      {"smiles": "CCCN(Cc1c(CC)nn(-c2ccc(F)cc2)c1N1CCN(C(C)C)CC1)C(=O)COCc1ccccc1", "% Inhibition": -14, "Z score": 1.88},
      {"smiles": "Cc1nnc2n1C[C@@H](CNc1nc(C3CCOCC3)ns1)CC2", "% Inhibition": -10, "Z score": 1.34},
      {"smiles": "COc1ccc(/C=C/c2ccc3c(c2)C(=O)N2C[C@@H](NC(=O)CC(C)(C)CC(=O)O)C[C@H]2C(=O)N3)cc1", "% Inhibition": -10, "Z score": 1.58},
      {"smiles": "Cc1ccc(C)c([C@@H]2CCCN2S(=O)(=O)CCc2scnc2C)c1", "% Inhibition": 2, "Z score": -0.23},
      {"smiles": "CN(C)Cc1ccc(C(=O)Nc2ccnn2[C@H]2CCOC2)cn1", "% Inhibition": 1, "Z score": -0.19},
      {"smiles": "O=C(NCCc1cc(F)ccc1F)N1CCN2CCOC[C@@H]2C1", "% Inhibition": -7, "Z score": 1.11},
      {"smiles": "CC(C)(C(=O)Cn1cc(S(C)(=O)=O)ccc1=O)c1ccccc1", "% Inhibition": -11, "Z score": 1.57},
      {"smiles": "Cc1ccnn1CC(=O)N1C[C@H]2CC[C@@H](C1)N(Cc1cscn1)C2=O", "% Inhibition": 4, "Z score": -0.5},
      {"smiles": "Cc1ccccc1OC[C@H](O)C(=O)NCCN(C)S(C)(=O)=O", "% Inhibition": -9, "Z score": 0.87},
      {"smiles": "Cc1c(NC(=O)c2coc(CN)c2)cccc1N1CCOC1=O", "% Inhibition": -7, "Z score": 0.97},
      {"smiles": "O=C1CCC(=O)N1CN(CN1C(=O)CCC1=O)C1CCCCC1", "% Inhibition": -5, "Z score": 0.62},
      {"smiles": "C[C@](O)(CNC(=O)N1CCNC1=O)c1cc2ccccc2s1", "% Inhibition": -12, "Z score": 1.55},
      {"smiles": "CC(C)Cc1noc(CN(C)C(=O)c2ccc[nH]2)n1", "% Inhibition": -21, "Z score": 2.06},
      {"smiles": "O=C1CCCc2[nH]c(=O)c(C(=O)NCc3ccc4c(c3)OCO4)cc21", "% Inhibition": -8, "Z score": 1.26},
      {"smiles": "CC1(C)C(Nc2ccncc2Cl)C2CCOC21", "note": "(stereo not drawn)", "% Inhibition": -12, "Z score": 1.86},
      {"smiles": "Cc1cc(NC(=O)CCc2ccco2)n(C)n1", "% Inhibition": -9, "Z score": 1.12},
      {"smiles": "OCC(CNc1cnccn1)C1CCOC1", "note": "(stereo not drawn)", "% Inhibition": 3, "Z score": -0.32},
      {"smiles": "O=C(Cc1ccccc1F)N[C@@H]1CN(c2ccncn2)C[C@H]1CO", "% Inhibition": -5, "Z score": 0.78},
      {"smiles": "COC(C(=O)N1C[C@@H](O)C[C@H]1CO)c1ccccc1C(F)(F)F", "note": "(stereo partly drawn)", "% Inhibition": 2, "Z score": -0.22},
      {"smiles": "CCN(CC(=O)Nc1ccc2c(c1)OCCO2)C(=O)Cc1ccccc1F", "% Inhibition": -9, "Z score": 1.61},
      {"smiles": "Cc1occc1C(=O)Nc1ccc(N2CCOCC2)cc1", "% Inhibition": 33, "Z score": -3.76},
      {"smiles": "Cc1nc2ncnn2c(N2CCC3(CCCCCC3)C2)c1C", "% Inhibition": 3, "Z score": -0.34},
      {"smiles": "CC(C)[C@H]1C(=O)N(C)CCN1C(=O)c1cccc(OCCc2ccccc2)c1", "% Inhibition": -3, "Z score": 0.35},
      {"smiles": "O=C(c1cc(-c2ccccc2)on1)N1CCCCC[C@H]1c1cccc(F)c1", "% Inhibition": 3, "Z score": -0.39},
      {"smiles": "O=C(Cc1ccccn1)NC[C@H]1CCN(C2Cc3ccccc3C2)C1", "% Inhibition": -10, "Z score": 1.4}
    ]}
  ]
}
